Results reported in PubChem BioAssay (NCI).
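How tested: cells in 96-well plates exposed to compound for 48 hours at five concentrations. GI50 = concentration required for 50% inhibition of growth. TGI: concentration producing complete growth inhibition.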

Test system: NCI-H322M lung
Assay: inhibition of tumour cell growth, NCI panel, 48 h

Compound	GI50 [nM]	TGI [nM]
Cc1[nH]c(C(=O)Nc2ccccc2OCc2cccc(C(=O)N3CCC[C@@H](N)C3)c2)c(Cl)c1Cl	1830	3450
COC1CCN(Cc2ccc3c(NNC(=O)c4cnccn4)nc4cc(F)ccc4n23)C1 (stereo not drawn)	1380	> 100000
Cn1cc(-c2cc(N)n3nc(-c4cn(C)c5ccc(F)cc45)cc3n2)c2cc(F)ccc21	1810	3960
O=C(/C=C/c1ccccc1Cl)Nc1ncc(Cc2cc(Cl)ccc2Cl)s1	2780	> 100000
